{
  "source": "paper PMC12136788",
  "binders": {"B1": {"name": "chr3:138945594:138946722:-|CDS|ENSG00000183770|control|control|control (ssRNA)", "RNA": "GGGAGUUCUACAGUCCGACGAUCCCCGGCCGCCUCGUACGGGCCGUACACACGCGUGCAGAGCAUGGCGCUGCCCCCCGGCGUAGUGAACUCGUACAAUGGCCUGGGAGGCCCGCCGGCCGCACCCCCGCCUCCGCCGCACCCCAACAGAGGAUUGAGCAUCA"}, "B2": {"name": "ENSG00000173068:stop:overlap|stop_codon|ENSG00000173068|stop_codon|NA|stop_codon (ssRNA)", "RNA": "GGGAGUUCUACAGUCCGACGAUCGAAAUCGGCACAGUCAGAACCCUAAUCUCCACAAAAACAUUCCCUUCACUUCAGUAGAUUAGUCUCAGAAUGGACACUACAAAUGCCAGCUCUCACCAGAUGGCCUACGUGUUUGAACUGCAACAGAGGAUUGAGCAUCA"}, "B3": {"name": "chr1:109310645:109310811:-|3pUTR|ENSG00000134243|msi1|FALSE|unique (ssRNA)", "RNA": "GGGAGUUCUACAGUCCGACGAUCAGGGUAACGGGGCUGGCCUGGCAUUAGUCAUUAUUUAGUUUCCAGGCCAACCAUCCAGAUAGAGAUUCCCUCUUUCCUUUGAGCAGUGCUCUCAAGAGCUCCGUGCCUGUCCACAAUGACCAACAGAGGAUUGAGCAUCA"}, "B4": {"name": "chr8:78602526:78602623:+|3pUTR|ENSG00000171033|msi1_unk|FALSE|overlapping (ssRNA)", "RNA": "GGGAGUUCUACAGUCCGACGAUCUUGUAUGUUGAUGAGUUGAUUAAGUCUAACAGAUUCAUCAAGACUCCAUUGCUUUAUUAUAGAGACAUUUGAAAAUAUCCAUUAAUGUGAAUAUCACCUGAAUUCAGUCUGUUUGGUGUCCAACAGAGGAUUGAGCAUCA"}, "B5": {"name": "chr16:56943551:56943652:+|3pUTR|ENSG00000051108|msi1|FALSE|unique (ssRNA)", "RNA": "GGGAGUUCUACAGUCCGACGAUCUGCAUGUCUAUGCUUGAGGAACUUUUCCAAAUGUGUGUGUCUGCAUGUGUGUUUGUACAUAGAAGUCAUAGAUGCAGAAGUGGUUCUGCUGGUACGAUUUGAUUCCUGUUGGAAUGUUUACAACAGAGGAUUGAGCAUCA"}, "B6": {"name": "chr8:58579689:58579790:+|CDS|ENSG00000137575|msi1|total|mutant (ssRNA)", "RNA": "GGGAGUUCUACAGUCCGACGAUCAGCACUGGACAUGUUGGUUUUAUCUUUAAAAAUGGAAAAAUAACAUCCACCGUGAAAGACCGCUCUGCAGCCAGAAAUGGUCUUCUCACGGAACAUAACAUCUGUGAAAUCAAUGGACAGCAACAGAGGAUUGAGCAUCA"}, "B7": {"name": "chr9:83661418:83661519:-|3pUTR|ENSG00000135018|msi1|FALSE|unique (ssRNA)", "RNA": "GGGAGUUCUACAGUCCGACGAUCUAUAGUUGGGUGACCAGAUUUUGUCCUGCAUCUGUCCAGUUUAUUUGCUUUUUAAACAUUAGCCUAUGGUAGUAAUUUAUGUAGAAUAAAAGCAUUAAAAAGAAGCAAAUCAUUUGCACUCAACAGAGGAUUGAGCAUCA"}, "B8": {"name": "chr3:41225653:41225883:+|CDS|ENSG00000168036|unk|FALSE|unique (ssRNA)", "RNA": "GGGAGUUCUACAGUCCGACGAUCCAUUACAACUCUCCACAACCUUUUAUUACAUCAAGAAGGAGCUAAAAUGGCAGUGCGUUUAGCUGGUGGGCUGCAGAAAAUGGUUGCCUUGCUCAACAAAACAAAUGUUAAAUUCUUGGCCAACAGAGGAUUGAGCAUCA"}, "B9": {"name": "chr21:25758092:25758193:+|CDS|ENSG00000154727|unk|total|mutant (ssRNA)", "RNA": "GGGAGUUCUACAGUCCGACGAUCGAAUUCAGCAUGACCGAUACCGACCUCACCACACUCAACAUUUCGGGGAGAGAAUUAUGCCGUCUCAACCAAGAAGAUUUUUUUCAGCGGGUUCCUCGGGGAGAAAUUCUCUGGAGUCAUCAACAGAGGAUUGAGCAUCA"}, "B10": {"name": "chr12:6238009:6238110:+|3pUTR|ENSG00000010278|msi1_unk|total|mutant (ssRNA)", "RNA": "GGGAGUUCUACAGUCCGACGAUCAUAAAAGCUGAAGUUACUUUAUGUUUGUCUUUUAAUGCUUCAUUCAAUAUUGACAUUUGCCGUUGAGCGGGGGGUUUGGUUUGCUUUGGUUUAUAUUUUUUCAGUUGUUUGUUUUUGCUUCAACAGAGGAUUGAGCAUCA"}, "B11": {"name": "chr4:124666837:124666938:-|3pUTR|ENSG00000151458|msi1|FALSE|unique (ssRNA)", "RNA": "GGGAGUUCUACAGUCCGACGAUCAAUGAUUUCUUGGCAGUUUAAAAAAAAUAUUUUAUAGUAGUUUAGGGAGCUGCUUUAAGUAGUUUAAAUCUGGAUUUUCCCAGUAGAAUUCUUCUCAUCUCUGGCUAAACAUGUCAGAACCAACAGAGGAUUGAGCAUCA"}, "B12": {"name": "ENSG00000133687:stop:overlap|stop_codon|ENSG00000133687|stop_codon|NA|stop_codon (ssRNA)", "RNA": "GGGAGUUCUACAGUCCGACGAUCUUGCCAAAUUGGAUCGCCUAGAAAAACGAUUACAAGAAGUUCGAGAAAAGGAUCAAACAUAGCACCACCGUCUGACCCAACCUCAUAGGAUAAUGUGGUGCCUCUGAAAGGGGAGUGAUGCAACAGAGGAUUGAGCAUCA"}, "B13": {"name": "chr14:94062441:94062542:-|CDS|ENSG00000089737|msi1|FALSE|unique (ssRNA)", "RNA": "GGGAGUUCUACAGUCCGACGAUCCCUCCAAGUAACACCGAAGCACCACCUGGAGAGACCAGAACUGAGGCCGGAGCUGAGACUAGAUCACCAGGCAAGGCUGAAGCUGAGUCUGAUGCAUUGCCUGACGAUACUGUAAUUGAGCAACAGAGGAUUGAGCAUCA"}, "B14": {"name": "chr7:88283957:88284065:-|CDS|ENSG00000127954|unk|FALSE|unique (ssRNA)", "RNA": "GGGAGUUCUACAGUCCGACGAUCCAGUGGUGCAGAAGUCUUGAGCUAUUCAGAAGCAGCCAAGAAGUCUGGCAUCAUAAUCAUAGCAAUCCACAGAGAGCAUUAUGAUUUUCUCACAGAAUUAACUGAGGUUCUCAAUGGAAACAACAGAGGAUUGAGCAUCA"}, "B15": {"name": "ENSG00000198589:be:win_2001|CDS|ENSG00000198589|bound_else_gene|NA|bound_elsewhere_windowed (ssRNA)", "RNA": "GGGAGUUCUACAGUCCGACGAUCGAAGGAUUCUGGAGUAAAGGAAGAUGAAUUACAGGCCAUUCUUAAUUACCUACUGACUAUGCAUGAGGAUGACAAUCUAAUGGAUGUCCUACAGCUGCUUGUUGCAUUAAUGUCAGAACACAACAGAGGAUUGAGCAUCA"}, "B16": {"name": "chr1:24839915:24840022:+|CDS|ENSG00000169504|unk|FALSE|bound_elsewhere (ssRNA)", "RNA": "GGGAGUUCUACAGUCCGACGAUCACCCUGCAGAAACUGGAUGAAUAUCUGAAUUCUCCUCUCCCUGAUGAAAUUGAUGAAAAUAGUAUGGAGGACAUAAAGUUUUCUACACGUAAAUUUCUGGAUGGCAAUGAAAUGACAUUACAACAGAGGAUUGAGCAUCA"}, "B17": {"name": "chr2:159433012:159433119:-|CDS|ENSG00000123636|unk|FALSE|unique (ssRNA)", "RNA": "GGGAGUUCUACAGUCCGACGAUCGCACUUACUACCAAAACUAAAAUGCAGAGCAAGAUUAAUGAAAACAUUGCUGCUGCAAGUAGCACCCCUUUUUCCUCACCUGUAAAUCUGAGUACAAGUGGGAGAAGAACCCCUGGCAAUCAACAGAGGAUUGAGCAUCA"}, "B18": {"name": "chr1:54850123:54850236:-|3pUTR|ENSG00000116133|msi1_unk|FALSE|overlapping (ssRNA)", "RNA": "GGGAGUUCUACAGUCCGACGAUCGCCUCCAACCCUAAGCCACUGGGACGGUGGCCAGAGAUGCCAGCAGCCUCUGUCGCCCUUAGUCAUAUAACCAAAAUCCAGACCUUAUCCACAACCCGGGGCUUGGAAAGGAAGGUAUUUCAACAGAGGAUUGAGCAUCA"}, "B19": {"name": "chr1:42176760:42176861:-|3pUTR|ENSG00000198815|msi1|total|mutant (ssRNA)", "RNA": "GGGAGUUCUACAGUCCGACGAUCGUCGCUCAGAUGUCCUUUGAAGUGGGAGGGAAUCAAUCCGGGGAUAAUUUCAAAUGGAACCGAGUAUUUUGAUAUUGUUCAUUCAGAGGGUGAUGUGUACAUAUCUAUAUUGUAUAUAUGCAACAGAGGAUUGAGCAUCA"}, "B20": {"name": "chr17:82614561:82616025:-|three_prime_utr|ENSG00000141580|control|control|control (ssRNA)", "RNA": "GGGAGUUCUACAGUCCGACGAUCCUACAAAUUCCUGUUCAACCCCAAGGGGGAGUGCAUCCGAGAUGUCUACGCGCAGUUUCUAGAGAUGACCGAUGACAAGCUGUGACUCCAGCUGGGGGCGCCACAGCACCCACCACCUGCCAACAGAGGAUUGAGCAUCA"}, "B21": {"name": "chr2:216675367:216675485:-|3pUTR|ENSG00000115461|msi1|total|mutant (ssRNA)", "RNA": "GGGAGUUCUACAGUCCGACGAUCGCCAGGCAGAGGCCAGCCCUCCGUGGUGCACACAGCACGCGCCUCAGUCCAUCCCAUUUCCGUCUUUAAACCCUCAGGAAGUCACAGUCUCCGGACACCACACCACAUGAGCCCAACAGGCAACAGAGGAUUGAGCAUCA"}, "B22": {"name": "chr12:56162362:56162467:-|3pUTR|ENSG00000139613|unk|FALSE|unique (ssRNA)", "RNA": "GGGAGUUCUACAGUCCGACGAUCGGUUCCUCCCACCAGGCCCUUUGUUCCUCAUGUCCCCAUGUUUCUCUCCCUCUGCGUCUUAGCACCUUUCUUCUGUUCAAAGUUUUCUGUAAAUUUUCUCUUUUUUUCUUUCUUUCUUUUCAACAGAGGAUUGAGCAUCA"}},
  "note": "The other results are listed elsewhere or left out.",
  "data": [
    {"target": "MSI1 full-length (mouse, UniProt Q61474 1-362)", "sequence (Q61474 whole entry)": "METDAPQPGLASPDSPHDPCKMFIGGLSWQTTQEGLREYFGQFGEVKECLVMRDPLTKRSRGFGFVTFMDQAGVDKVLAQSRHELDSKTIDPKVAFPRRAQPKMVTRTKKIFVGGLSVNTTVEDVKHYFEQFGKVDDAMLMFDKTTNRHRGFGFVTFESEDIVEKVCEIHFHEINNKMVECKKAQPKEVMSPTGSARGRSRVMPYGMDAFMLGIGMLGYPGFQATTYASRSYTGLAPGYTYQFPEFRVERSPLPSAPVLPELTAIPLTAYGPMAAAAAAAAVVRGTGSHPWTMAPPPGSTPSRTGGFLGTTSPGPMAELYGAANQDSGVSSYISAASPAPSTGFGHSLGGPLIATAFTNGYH", "assay": "nsRBNS (natural sequence RNA bind-n-seq); RBNS binding buffer (assumed for nsRBNS): 25 mM Tris pH 7.5, 150 mM KCl, 3 mM MgCl2, 0.01% Triton X-100, 500 ug/ml BSA, 20 U/ml SUPERase-In, 4 C; UNK is unkempt and MSI1 is Musashi-1; names of the RNAs are library labels; protein concentration not given here; high values mean tight binding", "units": {"binding signal": "enrichment R"}, "values": [
      {"binder": "B1", "binding signal": 0.45},
      {"binder": "B2", "binding signal": 0.686},
      {"binder": "B3", "binding signal": 12.4},
      {"binder": "B4", "binding signal": 5.26},
      {"binder": "B5", "binding signal": 0.35},
      {"binder": "B6", "binding signal": 0.47},
      {"binder": "B7", "binding signal": 26.4},
      {"binder": "B8", "binding signal": 0.396},
      {"binder": "B9", "binding signal": 0.43},
      {"binder": "B10", "binding signal": 1.21},
      {"binder": "B11", "binding signal": 23.2},
      {"binder": "B12", "binding signal": 0.277},
      {"binder": "B13", "binding signal": 0.372},
      {"binder": "B14", "binding signal": 0.311},
      {"binder": "B15", "binding signal": 0.483},
      {"binder": "B16", "binding signal": 0.295},
      {"binder": "B17", "binding signal": 0.413},
      {"binder": "B18", "binding signal": 0.86},
      {"binder": "B19", "binding signal": 0.79},
      {"binder": "B20", "binding signal": 0.533},
      {"binder": "B21", "binding signal": 0.675},
      {"binder": "B22", "binding signal": 0.987}
    ]}
  ]
}
